Two molecules from article PMC3723532 can be followed below.

By UniProt entry, the sequences of proteins in these tests, tags left out.
UniProt Q8LBM2: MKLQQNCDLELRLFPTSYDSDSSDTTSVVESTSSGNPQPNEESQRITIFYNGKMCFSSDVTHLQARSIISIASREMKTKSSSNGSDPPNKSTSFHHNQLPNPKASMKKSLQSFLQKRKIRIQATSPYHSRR
UniProt Q93ZM9: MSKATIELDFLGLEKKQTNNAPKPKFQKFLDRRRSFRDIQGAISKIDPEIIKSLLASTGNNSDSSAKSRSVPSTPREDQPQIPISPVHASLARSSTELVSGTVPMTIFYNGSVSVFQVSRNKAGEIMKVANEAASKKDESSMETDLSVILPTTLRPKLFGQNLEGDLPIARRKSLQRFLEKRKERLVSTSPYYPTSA
UniProt Q39204: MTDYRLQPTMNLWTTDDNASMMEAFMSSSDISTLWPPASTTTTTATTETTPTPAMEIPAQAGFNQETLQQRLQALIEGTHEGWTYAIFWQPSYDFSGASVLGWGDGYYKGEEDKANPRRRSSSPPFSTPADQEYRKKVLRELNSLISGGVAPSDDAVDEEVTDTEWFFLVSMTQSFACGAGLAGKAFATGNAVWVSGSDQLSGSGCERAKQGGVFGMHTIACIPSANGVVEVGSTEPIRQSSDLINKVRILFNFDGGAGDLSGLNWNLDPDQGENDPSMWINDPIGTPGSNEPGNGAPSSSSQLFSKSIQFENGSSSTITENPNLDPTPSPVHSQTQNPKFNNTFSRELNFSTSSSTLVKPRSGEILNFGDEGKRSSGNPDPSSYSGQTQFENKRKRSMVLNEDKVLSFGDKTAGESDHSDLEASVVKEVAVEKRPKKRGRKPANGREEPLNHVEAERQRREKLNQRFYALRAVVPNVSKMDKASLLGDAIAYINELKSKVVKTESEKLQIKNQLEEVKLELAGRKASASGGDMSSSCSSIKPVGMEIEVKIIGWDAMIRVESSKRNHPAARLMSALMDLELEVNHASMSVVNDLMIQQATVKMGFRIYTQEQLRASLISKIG
UniProt Q9FIP9: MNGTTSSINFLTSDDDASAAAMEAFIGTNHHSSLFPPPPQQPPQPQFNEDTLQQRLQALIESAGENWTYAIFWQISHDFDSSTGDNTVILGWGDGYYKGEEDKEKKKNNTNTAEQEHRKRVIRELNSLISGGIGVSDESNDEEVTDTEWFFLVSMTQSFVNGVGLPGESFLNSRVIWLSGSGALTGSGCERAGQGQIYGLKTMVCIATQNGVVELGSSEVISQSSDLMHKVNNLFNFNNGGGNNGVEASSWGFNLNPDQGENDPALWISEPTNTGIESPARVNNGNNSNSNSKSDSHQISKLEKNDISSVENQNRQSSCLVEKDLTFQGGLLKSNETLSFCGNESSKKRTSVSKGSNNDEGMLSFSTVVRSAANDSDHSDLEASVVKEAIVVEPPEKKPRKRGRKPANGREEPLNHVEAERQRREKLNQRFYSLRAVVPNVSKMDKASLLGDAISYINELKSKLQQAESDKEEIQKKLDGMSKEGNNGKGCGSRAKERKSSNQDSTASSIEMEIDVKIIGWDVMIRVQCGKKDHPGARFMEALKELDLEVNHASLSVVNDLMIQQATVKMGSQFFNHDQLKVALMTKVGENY
UniProt O49687: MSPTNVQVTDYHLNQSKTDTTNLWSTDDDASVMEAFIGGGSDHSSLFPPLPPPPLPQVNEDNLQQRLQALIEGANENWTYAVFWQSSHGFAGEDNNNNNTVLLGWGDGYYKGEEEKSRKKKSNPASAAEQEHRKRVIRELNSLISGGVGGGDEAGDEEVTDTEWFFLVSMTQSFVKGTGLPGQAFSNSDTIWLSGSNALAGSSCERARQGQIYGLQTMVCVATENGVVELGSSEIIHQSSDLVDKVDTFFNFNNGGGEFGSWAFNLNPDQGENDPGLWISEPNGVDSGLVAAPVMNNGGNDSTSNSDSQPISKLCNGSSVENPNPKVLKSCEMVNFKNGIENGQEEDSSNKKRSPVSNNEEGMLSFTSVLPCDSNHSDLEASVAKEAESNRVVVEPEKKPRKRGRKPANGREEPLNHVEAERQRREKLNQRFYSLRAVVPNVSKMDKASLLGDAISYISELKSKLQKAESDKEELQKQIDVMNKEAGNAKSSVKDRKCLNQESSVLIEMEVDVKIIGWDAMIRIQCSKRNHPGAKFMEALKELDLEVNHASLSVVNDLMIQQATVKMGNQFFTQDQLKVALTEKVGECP

Results are given in words; binding and its absence hold for the method and conditions named. For part of these data: In cells and extracts the contact can be indirect. Some entries that bind do so weakly or less than the wild type. For part of these data: Sequences can lack the tags named with a protein.

Assay [1] addresses T1, JAZ11 (Arabidopsis thaliana) (UniProt Q9M246).
T1 sequence: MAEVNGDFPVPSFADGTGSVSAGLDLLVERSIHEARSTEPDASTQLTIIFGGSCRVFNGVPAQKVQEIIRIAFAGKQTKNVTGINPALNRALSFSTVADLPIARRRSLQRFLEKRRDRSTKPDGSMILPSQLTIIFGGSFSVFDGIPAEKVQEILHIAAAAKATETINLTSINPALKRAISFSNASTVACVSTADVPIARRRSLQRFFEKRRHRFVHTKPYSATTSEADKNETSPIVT
As to the kind of experiment: two-hybrid; LexA BD fusions (pLexA) and B42 AD fusions (pB42AD) in yeast EGY48; blue colour on 2% Gal/1% raffinose/SD/-Ura/-His/-Trp/-Leu/X-β-Gal medium; images after 3 days at 30°C.

The target of assay [2] is JAZ8 (Arabidopsis thaliana) (UniProt Q8LBM2). The description is as above.
The target in assay [3] is T2, EGL3 (BiFC fusion) (Arabidopsis thaliana) (UniProt Q9CAD0).
T2 sequence: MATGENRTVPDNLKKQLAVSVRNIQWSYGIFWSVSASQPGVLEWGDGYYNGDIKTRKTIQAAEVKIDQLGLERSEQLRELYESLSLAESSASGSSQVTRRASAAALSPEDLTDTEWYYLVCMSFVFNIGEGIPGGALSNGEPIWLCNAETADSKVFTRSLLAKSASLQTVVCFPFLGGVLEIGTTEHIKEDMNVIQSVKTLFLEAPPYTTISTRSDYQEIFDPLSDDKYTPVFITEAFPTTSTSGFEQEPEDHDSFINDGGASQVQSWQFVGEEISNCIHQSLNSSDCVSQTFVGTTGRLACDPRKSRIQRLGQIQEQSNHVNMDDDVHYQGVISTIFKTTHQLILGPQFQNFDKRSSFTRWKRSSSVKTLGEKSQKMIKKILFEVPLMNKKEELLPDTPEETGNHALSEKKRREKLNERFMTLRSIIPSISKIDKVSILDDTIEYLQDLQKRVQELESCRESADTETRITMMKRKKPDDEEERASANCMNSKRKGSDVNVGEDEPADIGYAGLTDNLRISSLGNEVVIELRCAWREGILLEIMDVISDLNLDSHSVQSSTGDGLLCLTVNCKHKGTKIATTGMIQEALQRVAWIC
As to the kind of experiment: split reporter; BiFC: nYFP and cYFP fusions coexpressed in N. benthamiana leaves by Agrobacterium infiltration; YFP fluorescence 50 h after infiltration, plants at 24°C.

Assay [4] addresses T3, GL1 (BiFC fusion) (Arabidopsis thaliana) (UniProt P27900).
T3 sequence: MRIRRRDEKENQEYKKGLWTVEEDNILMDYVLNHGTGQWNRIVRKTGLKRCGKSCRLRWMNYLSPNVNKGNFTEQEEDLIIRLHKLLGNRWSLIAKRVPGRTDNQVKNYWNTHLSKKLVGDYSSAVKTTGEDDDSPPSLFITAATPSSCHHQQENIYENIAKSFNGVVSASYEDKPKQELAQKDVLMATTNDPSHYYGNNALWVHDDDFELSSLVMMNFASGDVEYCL
The description is as above.

Assay [5] addresses T4, GL3 (BiFC fusion) (Arabidopsis thaliana) (UniProt Q9FN69).
T4 sequence: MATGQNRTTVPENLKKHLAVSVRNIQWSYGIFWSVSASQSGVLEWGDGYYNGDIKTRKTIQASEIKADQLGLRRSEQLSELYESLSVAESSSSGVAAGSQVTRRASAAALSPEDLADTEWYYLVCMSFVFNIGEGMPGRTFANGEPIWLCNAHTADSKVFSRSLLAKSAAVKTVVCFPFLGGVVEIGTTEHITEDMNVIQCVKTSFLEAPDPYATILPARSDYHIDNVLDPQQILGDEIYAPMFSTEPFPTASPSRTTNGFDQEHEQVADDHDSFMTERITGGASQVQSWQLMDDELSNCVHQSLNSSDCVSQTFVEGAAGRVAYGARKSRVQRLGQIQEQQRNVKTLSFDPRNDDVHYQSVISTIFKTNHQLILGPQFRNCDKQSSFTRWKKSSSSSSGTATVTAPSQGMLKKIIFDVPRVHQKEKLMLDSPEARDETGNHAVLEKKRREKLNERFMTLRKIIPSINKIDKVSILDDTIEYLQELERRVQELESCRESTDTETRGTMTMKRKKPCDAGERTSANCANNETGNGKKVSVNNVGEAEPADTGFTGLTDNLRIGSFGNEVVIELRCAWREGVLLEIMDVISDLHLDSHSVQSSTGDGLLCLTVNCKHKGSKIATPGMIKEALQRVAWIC
The assay is described as above.

In assay [6] the target is T5, JAZ1-nYFP (Arabidopsis thaliana) (UniProt Q9LMA8).
T5 sequence: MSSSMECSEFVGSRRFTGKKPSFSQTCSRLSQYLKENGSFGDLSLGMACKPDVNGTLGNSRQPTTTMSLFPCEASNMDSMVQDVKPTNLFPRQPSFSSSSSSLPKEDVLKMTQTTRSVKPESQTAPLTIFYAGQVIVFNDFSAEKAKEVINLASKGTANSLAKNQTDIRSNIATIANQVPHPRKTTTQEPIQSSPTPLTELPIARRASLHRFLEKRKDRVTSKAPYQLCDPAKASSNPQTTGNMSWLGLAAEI
The assay is described as above.

Assay [7] has as its target JAZ10 (fused with nYFP) (Arabidopsis thaliana) (UniProt Q93ZM9). The description is as above.
Assay [8] concerns the target T6, MYB75 (BiFC fusion) (Arabidopsis thaliana) (UniProt Q9FE25).
T6 sequence: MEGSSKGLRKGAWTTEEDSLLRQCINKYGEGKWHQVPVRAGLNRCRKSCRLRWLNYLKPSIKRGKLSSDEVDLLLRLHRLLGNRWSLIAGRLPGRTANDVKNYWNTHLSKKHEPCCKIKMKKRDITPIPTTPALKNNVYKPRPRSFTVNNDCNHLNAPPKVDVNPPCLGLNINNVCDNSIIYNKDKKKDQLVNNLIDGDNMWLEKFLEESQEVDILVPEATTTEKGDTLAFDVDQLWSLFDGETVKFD
Described as above.

Assay [9] has as its target MYC2 (BiFC fusion) (Arabidopsis thaliana) (UniProt Q39204). The description is as above.
For assay [10], the target named is MYC3 (BiFC fusion) (Arabidopsis thaliana) (UniProt Q9FIP9). Described as above.
Assay [11] concerns the target MYC4 (BiFC fusion) (Arabidopsis thaliana) (UniProt O49687). The assay is described as above.
Assay [12] addresses T7, TT8 (BiFC fusion) (Arabidopsis thaliana) (UniProt Q9FT81).
T7 sequence: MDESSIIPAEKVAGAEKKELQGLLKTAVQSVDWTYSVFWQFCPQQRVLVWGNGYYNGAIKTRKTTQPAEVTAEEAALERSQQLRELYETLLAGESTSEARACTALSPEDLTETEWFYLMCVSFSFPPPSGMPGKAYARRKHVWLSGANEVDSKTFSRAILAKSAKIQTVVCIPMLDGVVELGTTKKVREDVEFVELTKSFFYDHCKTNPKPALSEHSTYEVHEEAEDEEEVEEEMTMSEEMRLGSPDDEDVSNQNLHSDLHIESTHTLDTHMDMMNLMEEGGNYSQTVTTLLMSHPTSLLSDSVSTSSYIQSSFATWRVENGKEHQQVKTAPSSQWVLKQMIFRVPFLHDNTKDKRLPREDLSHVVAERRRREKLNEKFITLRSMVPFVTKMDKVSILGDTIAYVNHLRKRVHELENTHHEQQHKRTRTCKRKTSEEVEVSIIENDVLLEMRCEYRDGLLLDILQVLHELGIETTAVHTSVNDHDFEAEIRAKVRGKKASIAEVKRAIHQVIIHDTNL
Described as above.

B1: bHLH14 (protein, UniProt O23090 1-423)
chain: MYNLTFSPSLSSSLLSFTQQTPAAIVSSSPPDLVLQQKLRFVVETSPDRWAYVIFWQKMFDDQSDRSYLVWVDGHFCGNKNNNSQENYTTNSIECELMMDGGDDLELFYAASFYGEDRSPRKEVSDESLVWLTGPDELRFSNYERAKEAGFHGVHTLVSIPINNGIIELGSSESIIQNRNFINRVKSIFGSGKTTKHTNQTGSYPKPAVSDHSKSGNQQFGSERKRRRKLETTRVAAATKEKHHPAVLSHVEAEKQRREKLNHRFYALRAIVPKVSRMDKASLLSDAVSYIESLKSKIDDLETEIKKMKMTETDKLDNSSSNTSPSSVEYQVNQKPSKSNRGSDLEVQVKIVGEEAIIRVQTENVNHPTSALMSALMEMDCRVQHANASRLSQVMVQDVVVLVPEGLRSEDRLRTTLVRTLSL
With B1, the binding entry in assay [1] and in assay [2] was “binds” in each case.

B2: cYFP-bHLH14 (protein, UniProt O23090 1-423)
chain: B1 chain
Regarding B2, the binding result is “no binding” in assay [3]; “no binding” in assay [4]; “no binding” in [5]; “binds” in assay [6]; “binds” in assay [7]; “no binding” in assay [8]. Moreover, the binding result in [9], in assay [10], in assay [11] and in assay [12] was “no binding” each time.
